Data: PubChem BioAssay AID1347417 (National Center for Advancing Translational Sciences (NCATS), 2020)
The whole screen tested about 120,000 compounds, of which about 5,300 (4.4%) were called active. The inconclusive results got no clear call from the source; some entries with a clear call stand among them for comparison. Calls come from the whole dose curve; as a rule, active = well fitted inhibition curve with a large enough effect; inconclusive = small, poorly fitted or top-dose-only effect; inactive = no such curve, though single readings can be large or run the other way. Potencies of inconclusive entries are doubtful fits and often do not repeat.

Assay: qHTS Primary assay for Inhibitors of Plasmodium falciparum Dd2 growth in vitro; note: nearly all actives have a fitted effect of over 65% in size;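 for activity, negative = inhibition: plate controls were DMSO vehicle for no effect and reference drug for full effect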
Conditions: P. falciparum Dd2 growth, SYBR Green, 72 h; activity, negative = inhibition: at 28.9 µM (top of the series) unless noted; series mostly up to 28.9 µM
Text: Malaria, a parasitic disease spread to humans through the bite of a Plasmodium infected Anopheles mosquito, continues to be a global health burden affecting millions of people, with an estimated 228 million cases and 405,000 deaths in 2018. Concerns about safety and limitations of current antimalarial treatments strongly emphasize the need to develop new therapeutic options. The scarce number of chemotypes and validated drug targets with efficacy against the liver stage, have hindered development of new antimalarials. To address this, a chemoprophylactic drug discovery effort was conducted through a combined phenotypic high-throughput asexual blood stage and liver stage screen, providing a robust foundation to identify liver-stage active lead chemotypes. Compounds were initially screened against Plasmodium falciparum Dd2 strain parasites using a in vitro SYBRGreen-1 based 72 hr proliferation assay to identify novel chemotypes to advance to liver stage assays. NIH/NCATS Early Translation Branch Assay Submitter (PI): Anton Simeonov Ph.D.
Malaria-vivax Assay Protocol: PROTOCOL TABLE (as described by Inglese et al., 2007) SEQUENCE No. (e.g., 1, 2, 3, etc.); […] (e.g., Cells, Incubation, Reagent, etc.); VALUE; DESCRIPTION SEQUENCE, Parameter, Description 1; Reagent; 3 uL complete malaria growth medium, 1536 TC treated Black clear bottom plate 2; Controls; 23 nL positive control artesunate (300 nM final) to column 1; Neutral control DMSO to columns 2-4 3; Compound; 23 nL of compounds in dose response concentration (29 uM to 0.5 nM final) 4; Reagent; 5 uL malaria infected red blood cells (2.5% hematocrit final, 0.3% parasitemia 5; Time; 72 hours at 37C (5% O2, 5% CO2, 90% N2; 95% Rh) 6; Reagent; 2 uL lysis buffer/SYBRGreen-1, 25 sec shake immediately following dispense 7; Time; ~16 hours at 37C (5% O2, 5% CO2, 90% N2; 95% Rh) 8; Detector; EnVision (PerkinElmer) bottom read at 485/14nm excitation and 535/25 nm emission NOTES (numbers refer to sequence above): 1; Complete Malaria Growth Media: 1X RPMI-1640 w/L-glutamine, 5.5g/L Albumax II, 367 uM Hypoxanthine, 25 mM HEPES, 0.25% Sodium Bicarbonate, 35 uM Gentamicin sulfate 2; Controls were added using the Kalypsis Pintool (Wako USA) equipped with 1536 pinhead 3; Compounds were added in a 7-point, titration with a high final concentration of 29 uM by Pintool from seven inter-plate titrations of library plates and two DMSO control plates at the beginning and end (see Yasgar et al., 2008). 4; Red blood cells infected with Plasmodium falciparum Dd2 parasites were used. 6; Lysis buffer: 20 mM Tris-HCl, 10 mM EDTA, 0.16% Saponin, 1.6% Triton-X, 10X SYBR Green. REFERENCE: Inglese J, Shamu CE, Guy RK. 2007. Reporting data from high-throughput screening of small-molecule libraries. Nat Chem Biol. doi:10.1038/nchembio0807-438 Yasgar A, Shinn P, Jadhav A, Auld D, Michael S, Zheng W, Austin CP, Inglese J, Simeonov A. 2008. Compound Management for Quantitative High-Throughput Screening. J Lab Autom 13:79-89. doi:10.1016/j.jala.2007.12.004
Potency is the fitted concentration of half-maximal effect; tags give direction and shape of the fitted curve.

Structure (SMILES) | Potency | outcome | activity, negative = inhibition
COc1cc(OC)c(NC(=O)c2cn(C3CCCC3)c(=O)c3c2c2ccccc2n3C)cc1Cl | inconclusive: 17.8 µM [inhibitor, single point] | – | –
CN(Cc1ccccc1)Cc1cn([C@H]2CO[C@H]3[C@@H]2OC[C@@H]3NC(=O)Nc2ccc(Oc3ccccc3)cc2)nn1 | – | inactive | –
CCOc1ccc(CN2CCc3nc(N4CCN(c5ccccn5)CC4)ncc3C2)cc1OC | – | – | inactive: -28.3%
Cn1c(=O)c2cc(C(=O)NC3CCCCCC3)sc2c2ccccc21 | inconclusive: 3.98 µM [inhibitor, partial curve] | – | –
CCc1cccc2c(C(CC(=O)N3CCCC3)c3cccc([N+](=O)[O-])c3)c[nH]c12 (configuration not stated) | active: 7.94 µM | – | –
O=C(NCCc1ccccc1)C1CCN(C(=O)[C@H]2CCC[C@H](O)C2)CC1 | – | – | inactive: -9.98%
CCOc1ccc(NC(=O)Cn2ccn3nc(-c4ccc(F)cc4)c(CO)c3c2=O)cc1 | – | – | inactive: -2.05%
O=C(c1ccccc1)N1CC[C@H](c2nnc(Cc3ccccc3)o2)C1 | – | – | inactive: 12.3% [at 44.1 µM]
COc1cccc(N2C(=O)NC(=NC3CCCC3)C23CCN([S+](=O)([O-])c2cccs2)C3)c1 (configuration not stated) | inconclusive: 11.2 µM [inhibitor, partial curve, poor fit] | – | –
CNC(=O)[C@@H]1CN(C(=O)c2ccc(F)cn2)C[C@H]1COC | inconclusive: 3.98 µM [inhibitor, partial curve, poor fit] | – | –
COc1ccc(-c2ccc3nc(-c4cccc(C)c4C)oc3c2)c(OC)c1OC | – | – | inactive: -2.94%
COc1ccc(-n2nc(C)c([C@@H]3C=C[C@@H](NC(=O)Nc4cccc(C#N)c4)C3)c2C)cc1 | inconclusive: 12.6 µM [inhibitor, single point] | – | –
O=C(N[C@@H](Cn1cc(Br)c(=O)[nH]c1=O)C(=O)O)C1CCC1 | – | – | inactive: 15.8% [at 44.1 µM]
Cn1cc(CCNC(=O)c2ccc3oc(-c4cccc(F)c4)nc3c2)cn1 | – | – | inactive: -22.6%
CCc1noc(-c2cccn3c(CNC(=O)c4ccc(F)cc4Cl)nnc23)n1 | inconclusive: 1 µM [inhibitor, partial curve, poor fit] | – | –
O=C(C1CC1)N1CCC(C(=O)N2CC(OCc3ccccc3)C2)CC1 | – | – | inactive: -1.58%
O=c1n(Cc2ccc3ccccc3n2)nc(C2CCNCC2)n1Cc1ccccc1 | inconclusive: 11.2 µM [inhibitor, single point] | – | –
CCC(C(=O)Nc1ccc(C(=O)OC)cc1)n1nc(-c2ccc(C)cc2)c2c(c1=O)CCCC2 (configuration not stated) | inconclusive: 10 µM [inhibitor, single point] | – | –
Cc1cc(C)c2c(CC(=O)Nc3ccc(S(=O)(=O)N4CCCC(C)C4)cc3)coc2c1 (configuration not stated) | inconclusive: 12.6 µM [inhibitor, single point] | – | –
Cc1ccc(OCC(=O)Nc2cccc(OCc3cc(=O)n4ccccc4n3)c2)cc1C | inconclusive: 14.1 µM [inhibitor, single point] | – | –
COC[C@@H]1CN(C(=O)c2cc(C)[nH]n2)C[C@H]1c1ccncc1 | – | – | inactive: 5.59%
COc1ccc(C(=O)N2CCCC(n3cc(-c4nc(C5CC5)no4)nn3)C2)cc1OC (configuration not stated) | – | – | inactive: 230%
COC[C@H]1C[C@@H](NCc2ccc(OC(F)(F)F)cc2)[C@H](O)[C@@H]1O | – | inactive [at 44.1 µM] | –

Structure (SMILES) | Potency | outcome | activity, negative = inhibition
O=C(Cc1ccccc1)N(Cc1cccnc1)c1nc2c(F)cccc2s1 | inconclusive: 17.8 µM [inhibitor, single point] | – | –
Cc1nn(-c2ccc(F)cc2)c(C)c1[C@@H]1C=C[C@@H](NC(=O)NC(C)C)C1 | active: 8.91 µM | – | –
Cc1ncsc1CCC(=O)N1CC(=O)N(C2CCCCC2)CC(OCc2ccccc2)C1 (configuration not stated) | inconclusive: 12.6 µM [inhibitor, single point] | – | –
CCCn1ccnc1CN1C[C@@H](NC(=O)c2ccon2)C[C@H]1C(=O)NCC | – | – | inactive: -3.15%
Cc1cccc(N(C)C(=O)CN2C(=O)COc3ccc(S(=O)(=O)N4CCCCCC4)cc32)c1 | inconclusive: 7.94 µM [inhibitor, partial curve, poor fit] | – | –
COc1ccc(C2=NOC3(CCCN(C(=O)C4CCCCC4)C3)C2)cc1 (configuration not stated) | – | – | inactive: -16.7%
CCN(Cc1ccccc1)C(=O)C1CCN(c2ncnc3c2nc2n3CCCCC2)CC1 | inconclusive: 20 µM [inhibitor, partial curve, poor fit] | – | –
COc1cc2c(=O)c(S(=O)(=O)c3ccc(F)cc3)cn(Cc3ccccc3C)c2cc1OC | active: 11.2 µM | – | –
CCn1ncc(N2CCC(NC(=O)c3cccc(C)c3)CC2)cc1=O | – | – | inactive: -10.1%
COc1ccc(-c2noc([C@@H]3C[C@H](NC(=O)c4ccc(F)cc4)CN3C)n2)cc1 | – | inactive [at 44.1 µM] | –
CCN(CC)Cc1nc(C2(O)CCN(Cc3ccccc3)CC2)cs1 | – | – | inactive: -15.6% [at 44.1 µM]
COc1ccc(CCNC(=O)c2c(C)noc2-c2cccs2)cc1OC | inconclusive: 1.12 µM [inhibitor, partial curve] | – | –
Oc1cccc(-c2cc(-c3ccncc3)c3cncn3c2)c1 | inconclusive: 10 µM [inhibitor, partial curve, poor fit] | – | –
Cc1ccccc1S(=O)(=O)N1CCN(C2CCN(Cc3ccccn3)C2=O)CC1 (configuration not stated) | inconclusive: 15.8 µM [inhibitor, partial curve, poor fit] | – | –
CC(=O)Oc1c(-c2ccc(NC(=O)c3ccc4c(c3)OCO4)cc2)c(C2CC2)nn1-c1cccc(F)c1 | inconclusive: 0.224 µM [inhibitor, full curve, poor fit] | – | –
CN1CCc2c([nH]c3ccccc23)C12CCN(C(=O)c1cccn1C)CC2 | inconclusive: 8.91 µM [inhibitor, partial curve] | – | –
Cc1cccc(N2CCN(C(=O)C3CCCN(S(=O)(=O)c4cccc5nsnc45)C3)CC2)c1C (configuration not stated) | inconclusive: 8.91 µM [inhibitor, single point] | – | –
CSc1cccc(NC(=O)N[C@H]2C[C@@H](C(=O)N[C@@H](CCCNC(=O)C=C(C)C)C(N)=O)N(C(=O)C=C(C)C)C2)c1 | inconclusive: 2.51 µM [inhibitor, partial curve] | – | –
Cn1cccc1C(=O)N1CCC2(CC1)C(=O)NCN2Cc1ccc(Cl)cc1 | inconclusive: 11.2 µM [inhibitor, single point] | – | –
O=C1NC2(CCN(Cc3ccccn3)CC2)COc2ccccc21 | inconclusive: 14.1 µM [inhibitor, single point] | – | –
O=C(NCc1ccccc1)N1CCC(N2C(=O)C3(CCCCC3)C2c2ccncc2)CC1 (configuration not stated) | inconclusive: 5.01 µM [inhibitor, partial curve, poor fit] | – | –
COc1ccc(NC(=O)C2CN(S(=O)(=O)C3CC3)CC23CCCCC3)c(OC)c1 (configuration not stated) | inconclusive: 17.8 µM [inhibitor, single point] | – | –
O=C(CCCCCn1c(=O)[nH]c2ccccc2c1=O)NCc1cccc(Cl)c1 | inconclusive: 14.1 µM [inhibitor, single point] | – | –

Structure (SMILES) | Potency | outcome | activity, negative = inhibition
COc1ccc(C(=O)N[C@@H]2CN(C3CCOCC3)C[C@H]2CN(C)C)c(C)c1 | – | – | inactive: -3.22%
COc1cccc(CN2CCN3C(=O)N(C4CCOCC4)C[C@H]3C2)n1 | – | – | inactive: 36.1% [at 44.1 µM]
O=c1[nH]c2ccc(NCc3ccc(-c4cccc(Cl)c4)o3)cc2[nH]1 | inconclusive: 5.01 µM [inhibitor, partial curve, poor fit] | – | –
O=c1[nH]nc2n1CCC(NS(=O)(=O)c1ccc3c(c1)CCC3)CC2 (configuration not stated) | – | – | inactive: -8.91%
COc1ccc(C(=O)NCCn2ccn3nc(-c4cc(C)ccc4C)cc3c2=O)cc1OC | inconclusive: 0.126 µM [inhibitor, full curve, poor fit] | – | –
CNC(=O)[C@@H]1CN(Cc2cnn(C)c2)C[C@H]1COC | – | – | inactive: 11.6%
C#CCN(Cc1nc(-c2ccc(OC)c(C)c2OC)oc1C)C1CCCCC1 | inconclusive: 10 µM [inhibitor, partial curve, poor fit] | – | –
O=C(Nc1ccc(Br)cc1)C1CCCN(S(=O)(=O)c2ccc(Br)s2)C1 (configuration not stated) | – | – | inactive: -14.9%
COc1ccc(CN2CCC[C@H]2c2nc(-c3ccc(N(C)C)nc3)no2)c(O)c1 | inconclusive: 22.4 µM [inhibitor, single point] | – | –
CC(C)n1cnnc1CC1CCCN(S(=O)(=O)c2ccc3c(c2)C(C)(C)C(=O)N3)C1 (configuration not stated) | – | – | inactive: -19.3%
Cc1cccc(OC2(C(=O)O)CCN(c3cncc(C(N)=O)n3)CC2)c1 | – | – | inactive: -9.11%
CCCn1c(SCc2nc(-c3ccccc3C)no2)nnc1-c1ccc(Cl)cc1 | inconclusive: 17.8 µM [inhibitor, single point] | – | –
CCOC(=O)c1[nH]c(C)c(CCC(=O)Nc2c(C)cc(C)cc2C)c1C | inconclusive: 11.2 µM [inhibitor, single point] | – | –
COc1ccc(N2C(=O)CSC23C(=O)N(CC(=O)NC2CCCCC2)c2ccccc23)cc1 (configuration not stated) | inconclusive: 14.1 µM [inhibitor, single point] | – | –
CCc1nc2c(c(-c3ccc(OC)cc3)n1)CCN(C(=O)c1ccccc1)CC2 | – | – | inactive: -22.5%
CCN1C(=O)Cc2cc(C(=O)NCc3cc(OC)ccc3OC)ccc21 | inconclusive: 10 µM [inhibitor, single point] | – | –
CNc1nc(C(=O)N2CCc3nc(-c4ccccc4)[nH]c3C2)cs1 | inconclusive: 7.94 µM [inhibitor, partial curve, poor fit] | – | –
CC(C)CCN(C1CCOCC1)C1CCN(Cc2cccnc2)CC1 | inconclusive: 17.8 µM [inhibitor, single point] | – | –
O=C(NCCN1CCCCC1)c1ccc(-c2ccc(N3CCCCC3)nc2)cc1 | – | – | inactive: -16.7%
CCOc1ccc(CC(=O)NCCn2ccn3nc(-c4cccc(OC)c4)cc3c2=O)cc1 | inconclusive: 1.41 µM [inhibitor, full curve, poor fit] | – | –
O=C1CN(C(=O)Cc2ccc(F)cc2)C(c2ccccc2)c2cc(Br)ccc2N1 (configuration not stated) | inconclusive: 6.31 µM [inhibitor, single point] | – | –
